In the supplement of paper PMC8728848:
Some of the results follow.

Key:
Assay in all cases: glycan array binding signal (z-score within array); higher = stronger binding
Conditions in all cases: glycan notation: IUPAC condensed, linker removed
[1] = target: Neu5Ac(a2-3)Gal(b1-3)[Neu5Ac(a2-6)]GalNAc
Procedure, shortened: (§1)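 Columns mapping to the same glycan were averaged after glycan names were converted to IUPAC-condensed notation. The data come from 3228 arrays in the Consortium for Functional Glycomics database, limited to those with an available protein sequence. Binding is reported as a within-array Z-score averaged across arrays of one protein sequence and across linkers.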

Neu5Ac(a2-3)Gal(b1-4)Glc = target: Neu5Ac(a2-3)Gal(b1-4)Glc
Procedure, shortened: as §1

[2] = target: Neu5Ac(a2-3)Gal(b1-4)GlcNAc
Procedure, shortened: as §1

[3] = target: Neu5Ac(a2-3)Gal(b1-4)GlcNAc(b1-3)Gal(b1-3)GlcNAc
Procedure, shortened: as §1

[4] = target: Neu5Ac(a2-3)Gal(b1-4)GlcNAc(b1-3)Gal(b1-4)GlcNAc
Procedure, shortened: as §1

[5] = target: Neu5Ac(a2-3)Gal(b1-4)GlcNAc(b1-3)Gal(b1-4)GlcNAc(b1-3)Gal(b1-4)GlcNAc
Procedure, shortened: as §1

[6] = target: Neu5Ac(a2-3)Gal(b1-4)GlcNAc(b1-3)Gal(b1-4)[Fuc(a1-3)]GlcNAc
Procedure, shortened: as §1

[7] = target: Neu5Ac(a2-3)Gal(b1-4)GlcNAc(b1-6)[Gal(b1-3)]GalNAc
Procedure, shortened: as §1

[8] = target: Neu5Ac(a2-3)Gal(b1-4)GlcNAc6S
Procedure, shortened: as §1

[9] = target: Neu5Ac(a2-3)Gal(b1-4)[Fuc(a1-3)]GlcNAc
Procedure, shortened: as §1

[10] = target: Neu5Ac(a2-3)Gal(b1-4)[Fuc(a1-3)]GlcNAc(b1-3)Gal
Procedure, shortened: as §1

[11] = target: Neu5Ac(a2-3)Gal(b1-4)[Fuc(a1-3)]GlcNAc(b1-3)Gal(b1-4)GlcNAc
Procedure, shortened: as §1

[12] = target: Neu5Ac(a2-3)Gal(b1-4)[Fuc(a1-3)]GlcNAc(b1-3)Gal(b1-4)[Fuc(a1-3)]GlcNAc(b1-3)Gal(b1-4)[Fuc(a1-3)]GlcNAc
Procedure, shortened: as §1

[13] = target: Neu5Ac(a2-3)Gal(b1-4)[Fuc(a1-3)]GlcNAc6S
Procedure, shortened: as §1

[14] = target: Neu5Ac(a2-3)Gal6S(b1-4)GlcNAc
Procedure, shortened: as §1

[15] = target: Neu5Ac(a2-3)Gal6S(b1-4)[Fuc(a1-3)]GlcNAc
Procedure, shortened: as §1

Neu5Ac(a2-3)GalNAc = target: Neu5Ac(a2-3)GalNAc
Procedure, shortened: as §1

[16] = target: Neu5Ac(a2-3)GalNAc(b1-4)GlcNAc
Procedure, shortened: as §1

[17] = target: Neu5Ac(a2-3)[GalNAc(b1-4)]Gal(b1-4)Glc
Procedure, shortened: as §1

[18] = target: Neu5Ac(a2-3)[GalNAc(b1-4)]Gal(b1-4)GlcNAc
Procedure, shortened: as §1

[19] = target: Neu5Ac(a2-3)[Neu5Ac(a2-6)]GalNAc
Procedure, shortened: as §1

[20] = target: Neu5Ac(a2-6)Gal(b1-4)GlcNAc
Procedure, shortened: as §1

[21] = target: Neu5Ac(a2-6)Gal(b1-4)GlcNAc(b1-2)Man(a1-3)[Neu5Ac(a2-6)Gal(b1-4)GlcNAc(b1-2)Man(a1-6)]Man(b1-4)GlcNAc(b1-4)GlcNAc
Procedure, shortened: as §1

[22] = target: Neu5Ac(a2-6)Gal(b1-4)GlcNAc(b1-3)Gal(b1-4)GlcNAc
Procedure, shortened: as §1

[23] = target: Neu5Ac(a2-6)Gal(b1-4)GlcNAc(b1-3)Gal(b1-4)[Fuc(a1-3)]GlcNAc(b1-3)Gal(b1-4)[Fuc(a1-3)]GlcNAc
Procedure, shortened: as §1

[24] = target: Neu5Ac(a2-6)Gal(b1-4)GlcNAc6S
Procedure, shortened: as §1

Neu5Ac(a2-6)GalNAc = target: Neu5Ac(a2-6)GalNAc
Procedure, shortened: as §1

[25] = target: Neu5Ac(a2-6)GalNAc(b1-4)GlcNAc
Procedure, shortened: as §1

Neu5Ac(a2-8)Neu5Ac = target: Neu5Ac(a2-8)Neu5Ac
Procedure, shortened: as §1

[26] = target: Neu5Ac(a2-8)Neu5Ac(a2-3)Gal(b1-4)Glc
Procedure, shortened: as §1

[27] = target: Neu5Ac(a2-8)Neu5Ac(a2-3)[GalNAc(b1-4)]Gal(b1-4)Glc
Procedure, shortened: as §1

[28] = target: Neu5Ac(a2-8)Neu5Ac(a2-8)Neu5Ac
Procedure, shortened: as §1

[29] = target: Neu5Ac(a2-8)Neu5Ac(a2-8)Neu5Ac(a2-3)Gal(b1-4)Glc
Procedure, shortened: as §1

[30] = target: Neu5Ac(a2-8)Neu5Ac(a2-8)Neu5Ac(a2-3)[GalNAc(b1-4)]Gal(b1-4)Glc
Procedure, shortened: as §1

[31] = target: Neu5Ac(a2-8)Neu5Ac(a2-8)Neu5Ac(a2-8)Neu5Ac(a2-3)[GalNAc(b1-4)]Gal(b1-4)Glc
Procedure, shortened: as §1

[32] = target: Neu5Ac9Ac(a2-6)Gal(b1-4)GlcNAc
Procedure, shortened: as §1

[33] = target: Neu5Gc(a2-3)Gal(b1-3)GlcNAc
Procedure, shortened: as §1

[34] = target: Neu5Gc(a2-3)Gal(b1-3)[Fuc(a1-4)]GlcNAc
Procedure, shortened: as §1

Neu5Gc(a2-3)Gal(b1-4)Glc = target: Neu5Gc(a2-3)Gal(b1-4)Glc
Procedure, shortened: as §1

[35] = target: Neu5Gc(a2-3)Gal(b1-4)GlcNAc
Procedure, shortened: as §1

[36] = target: Neu5Gc(a2-3)Gal(b1-4)[Fuc(a1-4)]GlcNAc
Procedure, shortened: as §1

[37] = target: Neu5Gc(a2-6)Gal(b1-4)GlcNAc
Procedure, shortened: as §1

Neu5Gc(a2-6)GalNAc = target: Neu5Gc(a2-6)GalNAc
Procedure, shortened: as §1

B1: Annexin-A1 (Mus musculus), P10107 (protein)
chain: MAMVSEFLKQARFLENQEQEYVQAVKSYKGGPGSAVSPYPSFNVSSDVAALHKAIMVKGVDEATIIDILTKRTNAQRQQIKAAYLQENGKPLDEVLRKALTGHLEEVVLAMLKTPAQFDADELRGAMKGLGTDEDTLIEILTTRSNEQIREINRVYREELKRDLAKDITSDTSGDFRKALLALAKGDRCQDLSVNQDLADTDARALYEAGERRKGTDVNVFTTILTSRSFPHLRRVFQNYGKYSQHDMNKALDLELKGDIEKCLTTIVKCATSTPAFFAEKLYEAMKGAGTRHKALIRIMVSRSEIDMNEIKVFYQKKYGISLCQAILDETKGDYEKILVALCGGN
glycan array binding signal (z-score) [1]: -0.287 | glycan array binding signal (z-score) (Neu5Ac(a2-3)Gal(b1-4)Glc): 0.108 | glycan array binding signal (z-score) [2]: -0.36 | glycan array binding signal (z-score) [3]: -0.481 | glycan array binding signal (z-score) [4]: -0.245 | glycan array binding signal (z-score) [5]: -0.611 | glycan array binding signal (z-score) [6]: -0.465 | glycan array binding signal (z-score) [7]: -0.622 | glycan array binding signal (z-score) [8]: -0.058 | glycan array binding signal (z-score) [9]: -0.252 | glycan array binding signal (z-score) [10]: -0.758 | glycan array binding signal (z-score) [11]: -0.086 | glycan array binding signal (z-score) [12]: -0.512 | glycan array binding signal (z-score) [13]: 0.188 | glycan array binding signal (z-score) [14]: -0.076 | glycan array binding signal (z-score) [15]: -0.632 | glycan array binding signal (z-score) (Neu5Ac(a2-3)GalNAc): -0.778 | glycan array binding signal (z-score) [16]: -0.515 | glycan array binding signal (z-score) [17]: 0.136 | glycan array binding signal (z-score) [18]: -0.528 | glycan array binding signal (z-score) [19]: -0.514 | glycan array binding signal (z-score) [20]: -0.22 | glycan array binding signal (z-score) [21]: -0.346 | glycan array binding signal (z-score) [22]: -0.507 | glycan array binding signal (z-score) [23]: 0.039 | glycan array binding signal (z-score) [24]: 1.36 | glycan array binding signal (z-score) (Neu5Ac(a2-6)GalNAc): -0.316 | glycan array binding signal (z-score) [25]: -0.589 | glycan array binding signal (z-score) (Neu5Ac(a2-8)Neu5Ac): -0.028 | glycan array binding signal (z-score) [26]: 0.061 | glycan array binding signal (z-score) [27]: 1.13 | glycan array binding signal (z-score) [28]: 0.41 | glycan array binding signal (z-score) [29]: -0.535 | glycan array binding signal (z-score) [30]: -0.223 | glycan array binding signal (z-score) [31]: -0.447 | glycan array binding signal (z-score) [32]: -0.157 | glycan array binding signal (z-score) [33]: 0.628 | glycan array binding signal (z-score) [34]: -0.413 | glycan array binding signal (z-score) (Neu5Gc(a2-3)Gal(b1-4)Glc): 0.38 | glycan array binding signal (z-score) [35]: 0.368 | glycan array binding signal (z-score) [36]: -0.436 | glycan array binding signal (z-score) [37]: 0.336 | glycan array binding signal (z-score) (Neu5Gc(a2-6)GalNAc): -0.052
